Data: PubChem BioAssay AID463173 (ICCB-Longwood Screening Facility, Harvard Medical School, 2010)
The whole screen tested about 52,000 compounds, of which about 4,300 (8.3%) were called active. Cut-off read from the data, not from the text of the source: active = survival mostly below about 52% (no sharp cut-off); inactive = mostly above about 56%. The list shows a part of the results.

system: DeltatarO mutant; assay: S. aureus survival, RN4220 and DeltatarO strains – OD600, teichoic acid synthesis inhibitors, primary screen (AID 463173); conditions: S. aureus RN4220 wild type/DeltatarO growth, OD600, 18 h, stronger effect = lower value, screened at 18.75 µg/mL (by protocol)

SMILES	survival
CCc1ccc(OCC(=O)Nc2cc3oc4ccccc4c3cc2OC)cc1	active: 47%
CCOC(=O)c1ccc(Nc2c(-c3ccc(O)c(OC)c3)nc3nc[nH]n23)cc1	inactive: 93%
CC(C)(C)OC(=O)N1CC=C2C(C1)C(c1cccc(F)c1)C(C#N)=C(N)C2(C#N)C#N (centres undefined)	inactive: 79%
CC1Cc2cc(S(=O)(=O)N3CCN(c4ccccc4F)CC3)ccc2N1C(=O)C1CCC1 (centres undefined)	inactive: 95%
Cc1cc(F)ccc1S(=O)(=O)NCC(c1ccco1)S(=O)(=O)c1cccs1 (centres undefined)	inactive: 118%
CC1CCCC(C)N1C(=O)CN1CCC(O)(c2ccccc2)CC1 (centres undefined)	inactive: 104%
Cc1cc2nnc(SCC(=O)Nc3ccc(F)c(Cl)c3)n2c2ccccc12	inactive: 82%
COc1cc(NS(=O)(=O)c2ccc3c(c2)CCN3S(C)(=O)=O)cc(OC)c1	inactive: 102%
CCCCOc1ccc(C(=O)N2CCN(CCc3ccncc3)CC2)cc1	inactive: 105%
COC(=O)C1=C(CS(=O)(=O)c2cc(Cl)ccc2OC)NC(=O)NC1c1ccccc1 (centres undefined)	inactive: 78%
Cc1ccc(-c2nc3ccccc3[nH]2)cc1NC(=O)C(C)C	inactive: 70%
CC(=O)c1c(C)nc2nc(-c3ccccc3)nn2c1C	inactive: 68%
COCCCNC(=O)c1oc2c(c1C)-c1nn(Cc3cccc(Cl)c3)cc1CC2	inactive: 72%
COc1ccccc1N1CCN(C(=O)c2nn(-c3ccc(C)cc3)c(=O)n(C)c2=O)CC1	inactive: 75%
Cc1cccc(NC(=O)c2ccc(N(Cc3ccccc3)S(C)(=O)=O)cc2)c1	active: 48%
CCN(CCCNC(=O)c1cc2c(=O)n(C)c3ccccc3c2s1)Cc1ccccc1	inactive: 94%
CCN(CC)CCSc1nc2ccc(OC)cc2[nH]1	active: 70%
Cc1ccc2c(c1)C(c1ccc(F)cc1)N(C(=O)COc1ccc(Cl)cc1Cl)CC(=O)N2 (centres undefined)	active: 45%
CC1=Nc2ccccc2N=C(C)C1	inactive: 89%
O=C(CSc1c2c(nc3ccc(Cl)cc13)CCCC2)N1CCN(c2cccc(Cl)c2)CC1	active: 51%
COc1ccc(CNC(=O)c2cnc3sc(N4CCCC4)nn3c2=O)cc1OC	inactive: 71%
Cc1cc2ncn(CCCCOc3ccccc3)c2cc1C	active: -4%
CCc1nn2c(=O)cc(COC(=O)c3cccc(NC(=O)c4ccccc4Cl)c3)nc2s1	inactive: 80%

SMILES	survival
CCc1ccc2c(c1)c(=O)c(S(=O)(=O)c1ccc(F)cc1)cn2CC(=O)Nc1ccc(C)cc1C	inactive: 105%
Cc1ccc(CNC(=O)C2CCCN(S(=O)(=O)c3cccc4nsnc34)C2)cc1 (centres undefined)	inactive: 117%
CCCn1ccc2c(OCC(=O)NCc3ccc(C)cc3)cccc2c1=O	inactive: 103%
CN1C(C(=O)Nc2ccc(F)cc2F)=CC(c2ccco2)=NS1(=O)=O	inactive: 86%
O=C(CSCc1ccccc1Cl)N1CCN(c2ccc(F)cc2)CC1	active: 46%
Cc1nnc(NCc2ccccc2)c2c1nnn2Cc1ccccc1Cl	inactive: 92%
Cc1cccn2c(=O)c(C(=O)NCCCN3CCCCC3C)c(O)nc12 (centres undefined)	inactive: 95%
Cc1cccc(C)c1NC(=O)c1oc2ccc3c(c2c1C)C(=O)CC(C)(C)O3	active: 42%
COc1ccccc1CNC(=O)C1CCCN(S(=O)(=O)c2ccc3c(c2)CCCN3C(C)=O)C1 (centres undefined)	active: 52%
O=C(Cn1ncc2c1-c1ccccc1OC2)N1CCN(c2ccccc2F)CC1	inactive: 64%
CN1c2ccccc2Sc2cc(C=C(C#N)C#N)ccc21	inactive: 108%
CCOC(=O)/C(C#N)=C/c1cc(Br)cs1	inactive: 84%
CCOC(=O)c1cccc(NC(=O)CN2C(=O)c3ccccc3Sc3ncccc32)c1	inactive: 100%
COc1cc(-c2nnn(CC(=O)Nc3ccc(OC(F)(F)F)cc3)n2)cc(OC)c1OC	inactive: 67%
CCOC(=O)c1c(C)[nH]c(CCC(=O)Nc2cc(C)ccc2OC)c1C	inactive: 78%
CC1CCC(NC(=O)c2ccc3c(c2)N(Cc2ccccc2)C(=O)c2ccccc2S3=O)CC1 (centres undefined)	inactive: 104%
Cc1ccc(C(=O)NCc2ccc(N(C)C)cc2)cc1NC(=O)c1nsc2ccccc12	inactive: 117%
COc1cc(NC(=O)CC2C(=O)N(c3ccc(Cl)cc3)C(=O)N2Cc2cccs2)cc(OC)c1 (centres undefined)	inactive: 85%
CCOC(=O)Cn1c(=O)n(CC2CCCO2)c2nc(-c3ccc(C(C)C)cc3)nc(C(N)=O)c21 (centres undefined)	active: 6%
O=C(Nc1nnc(S(=O)(=O)Nc2ccccc2)s1)C1CCCCC1	active: 31%
COc1cc2c(-c3cc(Br)ccc3O)nc3c(c(C)nn3-c3ccccc3)c2cc1OC	inactive: 77%
Cc1ccccc1N(C)S(=O)(=O)c1nnc(NC(=O)C(C)C)s1	inactive: 69%
CCOC(=O)c1ccc(N2C(=O)c3n[nH]c(C)c3C2c2ccc(OCC)cc2)cc1 (centres undefined)	inactive: 52%

SMILES	survival
COc1ccc(-n2c(=O)c3ccccc3n(Cc3cccc(C)c3)c2=O)cc1	inactive: 73%
COc1cccc(Cn2c(CNS(=O)(=O)c3ccc(C(C)(C)C)cc3)nc3cccnc32)c1	inactive: 130%
CCCN(c1ccc(C(C)C)cc1)S(=O)(=O)c1ccc2c(c1)oc(=O)n2CC(=O)OCC	inactive: 73%
COc1ccccc1N1CCN(C(=O)c2cc(S(=O)(=O)N3CCC(C)CC3)cn2C)CC1	active: 32%
COc1ccc(-c2nc(CNC(=O)Nc3ccccc3)c(C)o2)cc1	inactive: 70%
COc1ccc2c(C)c(CCC(=O)NCc3ccc(Cl)cc3)c(=O)oc2c1C	inactive: 54%
CCN(Cc1ccccc1)C(=O)c1nn(-c2ccc(OC)cc2)c(=O)c2c1c1ccccc1n2C	inactive: 68%
Cc1nn(-c2ccc(N3CCCC3)nn2)c(C)c1CCC(=O)N1CCN(c2ccccc2)CC1	inactive: 71%
Cc1ccccc1-c1nn2c(=O)cc(CN3CCN(S(=O)(=O)c4ccc(Cl)cc4)CC3)nc2s1	inactive: 105%
COC(=O)C(C#N)C(c1cccnc1)c1c(C)[nH][nH]c1=O (centres undefined)	inactive: 90%
N#C/C(=C(\O)c1ccco1)c1nc2ccccc2[nH]1	inactive: 98%
Cc1ccccc1NC(=O)Cn1c(=O)n(Cc2ccccc2)c(=O)c2sc3ccccc3c21	inactive: 65%
CCOc1ccc(C(=O)NCC(c2ccco2)S(=O)(=O)c2cccs2)cc1 (centres undefined)	inactive: 95%
COc1cc(OC)cc(C(=O)Nc2ccc3nc(Nc4cccc(C(F)(F)F)c4)cc(C)c3c2)c1	inactive: 70%
C#CCn1c(C2CC(=O)N(c3ccc(OCC)cc3)C2)nc2ccccc21 (centres undefined)	inactive: 62%
O=C(NCc1ccc(F)cc1)c1cnc(N2CCCCC2)c2ccccc12	inactive: 88%
CCCOc1ccc(CNC(=O)C2CCCN(c3nc4c(C)cc(C)cc4s3)C2)cc1 (centres undefined)	inactive: 93%
c1ccc2c(c1)nc1n2CCC1	inactive: 96%
COc1ccc(NC(=O)Cn2c(=O)n(-c3cccc(C(F)(F)F)c3)c(=O)c3sccc32)cc1	inactive: 88%
Cc1ccc(C)c(N2C(=O)CS/C2=N\NC(=O)c2ccc(S(=O)(=O)N3CCCC3)cc2)c1	inactive: 98%
O=C(NCC(c1ccc(Cl)cc1)N1CCCCC1)c1ccccc1F (centres undefined)	inactive: 88%
COc1ccccc1N1CCN(C(=O)CSc2n[nH]c(-c3ccccc3Cl)n2)CC1	inactive: 88%
CCOc1ccc(OCC)c(NC(=O)CCc2nc3cccnc3n2-c2ccccc2)c1	inactive: 72%

SMILES	survival
CCC1CN(C(=O)Nc2ccc(Br)cc2F)c2ccccc2S1 (centres undefined)	inactive: 90%
Cc1ccccc1NC(=O)[C@H](CSCc1ccccc1)N1Cc2ccccc2C1=O	inactive: 64%
CCc1ccc(S(=O)(=O)Nc2ccc(-c3ccc(N4CCCC4)nn3)cc2)cc1	inactive: 87%
COC(=O)C(NC(=O)CCc1c(C)nc2c(c(C)nn2-c2ccccc2)c1C)C(C)C (centres undefined)	inactive: 75%
Cc1ccc(Cl)cc1NC(c1ccc(F)cc1)c1nnc(-c2ccccc2)o1 (centres undefined)	inactive: 86%
Cc1ccc(NC(=O)C(CC(C)C)NS(=O)(=O)c2ccc3c(c2)oc(=O)n3C)c(C)c1 (centres undefined)	inactive: 86%
Cc1ccc2onc(CNC(=O)Nc3cc(F)ccc3F)c2c1	inactive: 49%
Cc1ccc2c(c1)Cc1c(nc(-c3ccc(Cl)cc3)nc1SCC(=O)N1CCCCC1)O2	inactive: 118%
Cc1ccn2c(Nc3ccc4c(c3)OCCO4)c(-c3cccs3)nc2c1	inactive: 102%
CCc1ccc(C2CC(=O)c3c([nH]c(C(=O)OCCOc4ccccc4)c3C)C2)cc1 (centres undefined)	inactive: 77%
O=C(CSc1nnc(-c2ccc(Cl)cc2)o1)Nc1ccc(F)cc1	inactive: 69%
COc1cccc2c1Oc1ncccc1N(c1ccc(C(=O)NCc3ccccc3Cl)s1)C2	inactive: 91%
CC(=O)N1CCc2c(sc3c2c(=O)n(CCc2ccccc2)c(=O)n3CC(=O)Nc2ccc(C)c(F)c2)C1	inactive: 70%
Cc1cccc(NC(=O)c2ccc(F)c(S(=O)(=O)N3CCC4(CC3)OCCO4)c2)c1	inactive: 72%
CC(C)NC(=O)C1CC(=O)N(c2ccc(Oc3ccccc3)cc2)C1 (centres undefined)	inactive: 87%
COc1ccc(NC(=O)Cn2c(=O)n(CCCC(=O)NCCc3ccc(C)cc3)c(=O)c3ccccc32)cc1Cl	inactive: 97%
Cc1ccc(CCNC(=O)c2ccc3c(c2)N(Cc2ccccc2)C(=O)c2ccccc2S3=O)cc1 (centres undefined)	inactive: 85%
COc1ccc(N2CCN(c3ncnc4onc(-c5ccc(F)cc5)c34)CC2)cc1	inactive: 86%
COc1cc(OC)c(NC(=O)N2CCc3cc(OC)c(OC)cc3C2CC(=O)O)cc1Cl (centres undefined)	inactive: 89%
CC(C)c1ccc(C2c3c(-c4ccccc4O)n[nH]c3C(=O)N2Cc2ccncc2)cc1 (centres undefined)	inactive: 88%
